Data as given in patent US20230270706A1, “TRANS-CROCETIN COMPOSITIONS AND TREATMENT REGIMENS” (priority 2020, published 2023).

Key:
[1] = in vivo
[2] = in vivo; cited from earlier work
[3] = Phase 2 clinical study of liposomal trans-crocetin: pharmacokinetics; type: in vivo, humans; conditions: across different dosing regimens
[4] = up to approximately 1.3 to 150 μmol/L (equivalent to 0.4 to 49 μg/mL); plasma; cited from earlier work

Row | Structure (SMILES) | t1/2 in a mouse PK study [1] | safety in clinical trials [2] | AUC and Cmax across body weights [3] | improvement in diffusion capacity (oxygen) [4] [%]
1 | CC(/C=C/C=C(\C)C(=O)[O-])=C\C=C\C=C(C)\C=C\C=C(/C)C(=O)[O-].[Na+].[Na+] [STC free drug, sodium trans-crocetinate] | half an hour | no safety concerns | – | –
2 | CC(/C=C/C=C(\C)C(=O)O)=C\C=C\C=C(C)\C=C\C=C(/C)C(=O)O [trans-crocetin] | – | – | stable levels of AUC and Cmax across a wide range of body weights | 30
